The whole screen tested about 46,000 compounds, of which about 60 (0.1%) were called active. Not shown: some 3% with an inconclusive outcome. Calls come from the whole dose curve; as a rule, active = well fitted inhibition curve with a large enough effect; inconclusive = small, poorly fitted or top-dose-only effect; inactive = no such curve, though single readings can be large or run the other way. This is one part of the list.
Assay: Primary qHTS assay for Inhibitors of ovarian cancer metastasis using an organotypic tumor microenvironment (TME) model.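 For Potency: count of GFP cancer cells still attached after washing and fixation.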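 For activity change, negative = inhibition: plate controls were DMSO wells for no effect and tomatine positive control wells for full effect.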 Note: nearly all actives have a fitted effect of over 65% in size.
Details: SKOV3ip1-GFP adhesion/invasion on 3D omental model, fluorescence; series mostly up to 45.8 µM; activity change, negative = inhibition: at the top concentration
Outline: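 qHTS, 4-pt dose (0.36-46 umol/L); SKOV3ip1-GFP, 1,200 cells/well, no FBS; primary omental fibroblast/mesothelial co-culture 48 h pre-grown; 2 h RT + 16 h 37 C; PBS wash, 4% PFA; GFP count 488/509 nm.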
Potency is the fitted concentration of half-maximal effect.

outcome, inactive:
COc1ccc(CN(Cc2ccco2)C(=O)COc2ccccc2Cl)cc1, Cc1c(Cl)cccc1NC(=O)CSc1nc(=O)[nH]c2c1CCC2, Cc1c2cnn(-c3ccccc3)c(=O)c2c(C)n1CCCC(=O)Nc1cccc(F)c1, COc1cccc(-n2c(SCC(=O)Nc3ccc4c(c3)OCO4)nc3c([nH]c4ccccc43)c2=O)c1, CC(C)c1ccc(C2CC(=O)N3CN(C4CCCCC4)CSC3=C2C#N)cc1 (centres undefined), CCn1cc2nc(SCc3cc(C)ccc3C)n(Cc3ccc(Cl)cc3)c(=O)c2n1, COc1cccc(CNC(=O)CN2C(=O)COc3ccc(S(=O)(=O)N4CCCCC4)cc32)c1, Cc1ccc(-c2nc3sc(CCNC(=O)c4ccc(F)c(F)c4)c(C)n3n2)cc1, Cc1ccccc1NC(=O)c1sc2nc(-c3cc4ccccc4oc3=O)[nH]c(=O)c2c1C, COc1ccc(C)cc1NC(=O)CN(C)S(=O)(=O)c1ccc2c(c1)c(=O)n(C)c(=O)n2C, CCC(CC)C(=O)Nc1ccc(S(=O)(=O)N2CCC(c3nc4ccccc4s3)CC2)cc1, Cc1nc2c(-c3ccc(F)cc3)c(C)nn2c(C)c1CCC(=O)NCc1ccc(F)cc1, CCOC(=O)c1c(N)n(-c2ccc(OCC)cc2)c2nc3ccccc3nc12

Activity change, negative = inhibition, inactive:
O=S(=O)(c1cccc(Cl)c1)n1c(/C=C/c2ccccc2Cl)nc2ccccc21 -13.9%, O=c1n(Cc2ccccc2)nc2n1-c1cc(Cl)ccc1OC2 30%, COC(=O)c1ccccc1NC(=O)c1ccc2c(c1)CCN2S(=O)(=O)c1ccc(Cl)cc1 0.449%, Cc1cc(C)c(S(=O)(=O)NCC2CCC(C(=O)NCCc3ccccc3)CC2)c(C)c1 (centres undefined) -5.43%, Cc1ccc(-c2c3c(=O)n(C)c(=O)n(C)c3c3c(-c4cccc(C)c4)nc4ccccc4n23)cc1 -4.47%, Cc1ccc(C)c(Cn2c3ccccc3c3cnn(CC(=O)NC4CCCCCC4)c(=O)c32)c1 6.79%, COc1ccc(-n2nc(C(=O)Nc3cc(C)c(Cl)cc3OC)c3c4ccccc4n(C)c3c2=O)cc1 -0.319%, Cc1ccccc1NC(=O)CSc1nc(-c2cccs2)nc2cc(=O)[nH]n12 5.49%, COc1cc(OC)cc(C(=O)N2CCN(C(=O)COc3ccc(C)cc3)CC2)c1 32.8%, CCC(=O)NCC[C@@H]1CCc2ccc3c(c21)CCO3 -2.85%, CCc1c(C)sc(NC(=O)c2cc3nc(-c4ccc(OC)cc4)cc(C(F)(F)F)n3n2)c1C(=O)OC -2.63%, CCN(CC)c1ccc(NC(=O)Cn2nc3c(cc2=O)CCCC3)c(C)c1 2.42%, N#Cc1nc(/C=C/c2ccc(F)cc2)oc1N1CCCCCC1 53.3%, CC(NS(=O)(=O)c1ccc2c(c1)CCN2C(=O)CCCC(=O)O)c1ccccc1 (centres undefined) -4.35%, COc1ccccc1N1CCN(C(=O)c2nn(C)c3c2CS(=O)(=O)c2ccccc2-3)CC1 -1.8%, O[C@@H](COc1cccc2ncccc12)CN1CCN(C2c3ccccc3[C@@H]3[C@H](c4ccccc42)C3(F)F)CC1 (some centres undefined) -19.6%, CCCc1cc(=O)[nH]c(Nc2cc(Cl)cc(Cl)c2)n1 3.08%, CC1=C(C(=O)Nc2ccccc2)C(c2ccc(Br)cc2)n2nc(CCCO)nc2N1 (centres undefined) 0.696%, COc1ccc(-n2ncc3c2ncn2nc(-c4ccc(OC)c(OC)c4)nc32)cc1 -2.21%, Cc1ccccc1-c1nc(CNC(=O)NC2CCCCC2)c(C)o1 -7.66%, Cn1ccc2cc(S(=O)(=O)N3CCCC(C(=O)NCc4ccccc4F)C3)ccc21 (centres undefined) -6.3%, CCOC(=O)c1ccc(NC(=O)Cc2noc3ccc(C)cc23)cc1 2.16%, Cn1cc(S(=O)(=O)N2CCCC2)cc1C(=O)Nc1ccc(F)cc1F -23.8%, CCN(CC)c1ccc(CN(C(=O)c2cc(=O)c3ccccc3o2)C2CCS(=O)(=O)C2)cc1 (centres undefined) -14.8%, C=CC(=O)N1CCc2ccc(-n3c(=O)ccc4cnc5ccc(-c6cnn(C)c6)cc5c43)cc21 4.2%, Cc1nn(Cc2ccc(F)cc2)c(C)c1NC(=O)c1noc2c1CCc1ccccc1-2 -5.52%, O=C(C1CCN(S(=O)(=O)c2cccs2)CC1)N1CCN(c2ccccc2F)CC1 -4.7%, O=C(CCCCCn1c(=O)[nH]c2ccccc2c1=O)N1CCN(c2cccc(C(F)(F)F)c2)CC1 11.4%, Cc1ccc(CNC(=O)CCCCCn2c(=O)c3sccc3n(CC(=O)N3CCCCC3C)c2=O)cc1 (centres undefined) 8.94%, CCCCC12CN3CC(C)(CN(C1)C3c1ccc(OCc3ccccc3)cc1)C2=O (centres undefined) -4.95%, CC1=C(C(=O)Nc2ccccc2Br)C2(CCC(C)CC2)OC1=O (centres undefined) -4.64%, CC(C)NC(=O)c1ccc(CSc2nc3ccncc3n2Cc2cccc(F)c2)cc1 -7.17%, CCCn1cc(S(=O)(=O)c2ccc(C)c(C)c2)c(=O)c2cc(F)c(N3CCCCC3)cc21 -8.74%, CCN(C(=O)Cn1c(C(=O)OC)cc2sccc21)c1cccc(C)c1 2.86%, Cc1ccccc1NC(=O)c1c(C)oc2ccc(O)c(CN3CCCCCC3)c12 2.89%, Cc1nc(-c2ccc(S(=O)(=O)N3CCN(c4ccccc4F)CC3)cc2)co1 26.4%, O=C(NC1CCCCC1)c1ccc(CSc2nc3cccnc3n2Cc2ccccc2)cc1 -19.7%, CC1=C(c2ccc(C(C)C)cc2)S(=O)(=O)N=C1N1CCC(C(=O)NCc2ccc(C)o2)CC1 10.6%, CC(=O)Nc1cccc(NC(=O)CSc2nccn2Cc2ccccc2)c1 3.17%, CCOC(=O)c1c(C)[nH]c(CCC(=O)NCc2ccc(OC)cc2OC)c1C -5.97%, COc1ccc(OCCCn2c(C3CC(=O)N(c4ccc(F)cc4)C3)nc3ccccc32)cc1 (centres undefined) -8.28%, Cc1ccc(CN(Cc2cccn2-c2nnc(N3CCCC3=O)s2)C(=O)Nc2ccccc2Cl)cc1 14.9%, Cc1cc(C)c2c(NC(=O)c3ccccc3Cl)c(C(=O)NCc3ccc(Cl)cc3)sc2n1 4.46%, O=C(COc1ccccc1-c1nc(-c2ccccc2)no1)Nc1ccc([N+](=O)[O-])cc1 -17.3%, Cc1c(CC(=O)NCCc2ccccc2)c(=O)oc2c(C)c3occ(C(C)(C)C)c3cc12 1.14%

Potency, active:
FC(F)(F)c1cccc(Nc2nc3nonc3nc2Nc2ccc(Cl)cc2)c1 10 µM

— PubChem BioAssay AID1963576 (National Center for Advancing Translational Sciences (NCATS), 2024)
